Sequences with one replicate were seen in a single cluster, so their values are uncertain.
System: ATP
Assay: switch fluorescence ratio, 500 uM ATP over buffer (Cy3 cluster intensity, sum of 5 cycles each) (fold (ratio)); higher = stronger signal-on switching upon ATP binding; sequences stand for … in TCGTCGGCAGCGTCAGATGTGTATAAGAGACAGTTTTTTTTTTTTTTTTTTTTTTTTT…TC
Conditions: aptamer strand: ATP DNA aptamer (quencher-CACCTGGGGGAGTATTGCGGAGGAAGG + anchor), 100 nM annealed; ATP concentration: 500 uM; one replicate
Summary of the method: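 Imaging in selection buffer was followed by imaging after 15 min with 500 uM ATP at 22 °C, for Cy3-labelled switching-strand clusters annealed to 100 nM quencher-labelled ATP aptamer on a modified Illumina MiSeq flow-cell. Five of these buffer/ATP cycles ran, separated by NaOH stripping and re-annealing. The fluorescence ratio per cluster is summed target-cycle over summed buffer-cycle Cy3 intensity, averaged per switch-domain sequence; clusters outside 100-1000 RFU were removed.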
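Also: ATP exposure 15 min at 22 °C before imaging.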

GTAACGACCG
switch fluorescence ratio: 1.01

ATAAGCAATA
switch fluorescence ratio: 3.94

TAGTAGGGTA
switch fluorescence ratio: 0.988

ATAACATGGA
switch fluorescence ratio: 1

GGGCGACCGG
switch fluorescence ratio: 0.967

ATCAAAGTAC
switch fluorescence ratio: 1.45

TCCTCAATTT
switch fluorescence ratio: 1.17

CGTCCTACGG
switch fluorescence ratio: 1.02

CGGGTGTGCC
switch fluorescence ratio: 0.988

GACGGATTCA
switch fluorescence ratio: 0.973

TCTATCCTTT
switch fluorescence ratio: 0.996

TGGGGAAGG
switch fluorescence ratio: 0.975

TGGTCCAAAT
switch fluorescence ratio: 0.995

CACACAGCCA
switch fluorescence ratio: 1.13

GTGGTGAAAC
switch fluorescence ratio: 1.05

AGGTTGCATC
switch fluorescence ratio: 0.944

CCGGGGGCG
switch fluorescence ratio: 0.947

CTTCATGCTC
switch fluorescence ratio: 1.01

GGTCCATCGG
switch fluorescence ratio: 0.965

CTGAGGGTCG
switch fluorescence ratio: 1.08

GTGTGCGACC
switch fluorescence ratio: 1.01

ATGCAATTGG
switch fluorescence ratio: 1.07

CACCACATTT
switch fluorescence ratio: 1.05

CTTTTATTCA
switch fluorescence ratio: 0.966

ATGATAACAT
switch fluorescence ratio: 0.98

GGGCTTGGCA
switch fluorescence ratio: 1

TAGGGTCTAA
switch fluorescence ratio: 0.951

AAGCATAATG
switch fluorescence ratio: 1.08

GGTTTATGTG
switch fluorescence ratio: 1

GCACGGCGTC
switch fluorescence ratio: 1.06

GGTCGAAGGT
switch fluorescence ratio: 0.996

CCGCCTTTGA
switch fluorescence ratio: 1.22

TAGATGCTGC
switch fluorescence ratio: 1.03

TTAGACGGGC
switch fluorescence ratio: 1.02

ACGCACGTAA
switch fluorescence ratio: 1.16

TCCGAAAAAC
switch fluorescence ratio: 2.14

CGATAGGAGG
switch fluorescence ratio: 0.981

TCGATTGGCC
switch fluorescence ratio: 0.993

TTATGTTAAG
switch fluorescence ratio: 1.02

CGGTTGACCG
switch fluorescence ratio: 1.01

TCTTGTTGT
switch fluorescence ratio: 0.976

CCCGCCCCAG
switch fluorescence ratio: 1.2

ACACAGTAAA
switch fluorescence ratio: 1.05

AGAGTTACTG
switch fluorescence ratio: 0.953

CGATAGTTCA
switch fluorescence ratio: 0.982

TTATGTTATA
switch fluorescence ratio: 0.973

AGTCCACGAA
switch fluorescence ratio: 1

TTGGGTCCAG
switch fluorescence ratio: 1.01

TGGACGGGCG
switch fluorescence ratio: 1.22

ATGGTTATG
switch fluorescence ratio: 0.934

ATTTACATCG
switch fluorescence ratio: 0.981

TTTAATCCAA
switch fluorescence ratio: 1.1

TATTTCACAT
switch fluorescence ratio: 0.973

GATGCGGGGT
switch fluorescence ratio: 0.993

CCGTCCTGCG
switch fluorescence ratio: 1.04

CTGAAGTTAG
switch fluorescence ratio: 1.08

ACGTCCTTGG
switch fluorescence ratio: 1.04

CTTATCGTGT
switch fluorescence ratio: 0.995

GTTGATAGC
switch fluorescence ratio: 1.05

ATCGGCCCGG
switch fluorescence ratio: 0.979

AGGTGTAGGA
switch fluorescence ratio: 1.01

GATTATTGAC
switch fluorescence ratio: 1.07

CATACATTTG
switch fluorescence ratio: 0.988

AGATCACTTT
switch fluorescence ratio: 1.02

TTGGTAGGA
switch fluorescence ratio: 0.963

GTTGCTTCGG
switch fluorescence ratio: 0.987

GGGTAGACCT
switch fluorescence ratio: 1.16

GTATCTATAA
switch fluorescence ratio: 1.03

AGGAAAAATC
switch fluorescence ratio: 1.02

TGCAGCAAGG
switch fluorescence ratio: 1.83

TGGTGCCAAA
switch fluorescence ratio: 1.04

TGTGTCCACA
switch fluorescence ratio: 1.03

ACTCACGGCG
switch fluorescence ratio: 1.36

ACACGAGTTC
switch fluorescence ratio: 1.02

CATCCCCGGT
switch fluorescence ratio: 1.24

CGTATCCGTG
switch fluorescence ratio: 0.988

GGCCAGCTGG
switch fluorescence ratio: 1.04

AAGGTATGAG
switch fluorescence ratio: 0.99

TTGGCAAGGG
switch fluorescence ratio: 1.03

GACTTTTTTA
switch fluorescence ratio: 1.06

GTTCTTATCT
switch fluorescence ratio: 0.987

GATGATATGC
switch fluorescence ratio: 1.05

CTAGGGGTGA
switch fluorescence ratio: 1.02

CAGCTCACGA
switch fluorescence ratio: 1.13

CGACGAGGTG
switch fluorescence ratio: 1.14

TTATGAGAAC
switch fluorescence ratio: 1.02

CATTATCCCT
switch fluorescence ratio: 1.06

GATGGGAGAG
switch fluorescence ratio: 1

TACCCTCTCT
switch fluorescence ratio: 0.994

GACTTCCACG
switch fluorescence ratio: 1.04

TATCTGGCCG
switch fluorescence ratio: 1.01

CAATACGGGA
switch fluorescence ratio: 1.13

CTTAAAAGC
switch fluorescence ratio: 0.995

CCTGTTGGAC
switch fluorescence ratio: 1.02

GCGTGCAGTG
switch fluorescence ratio: 0.969

ACGACCTACA
switch fluorescence ratio: 1.37

ACACTAGGAA
switch fluorescence ratio: 1.07

GCCTTTAGCA
switch fluorescence ratio: 1.04

GATGGAGGTA
switch fluorescence ratio: 1.02

TGGCGATTAG
switch fluorescence ratio: 0.985

GACAGTGACG
switch fluorescence ratio: 1.09

AACACTTAAA
switch fluorescence ratio: 1.06

TGCAGTAGTC
switch fluorescence ratio: 1.2

CGTTCGTTAT
switch fluorescence ratio: 1.1

AGCGGACCTT
switch fluorescence ratio: 1.26

GCTCGGATA
switch fluorescence ratio: 0.964

CCCAACAGTA
switch fluorescence ratio: 1.06

ATTTCACAGG
switch fluorescence ratio: 1.15

TTGGGTACAC
switch fluorescence ratio: 1.08

TGACCTTTTG
switch fluorescence ratio: 0.988

TTAAAAAGTC
switch fluorescence ratio: 0.964

AGATATACGT
switch fluorescence ratio: 1.07

TATGGATTAA
switch fluorescence ratio: 1.01

CACTCCATA
switch fluorescence ratio: 1.09

TGAGAATGCG
switch fluorescence ratio: 0.999

AAAGTCCTCT
switch fluorescence ratio: 0.967

CGTATTGGCT
switch fluorescence ratio: 0.946

ATACCTGAAA
switch fluorescence ratio: 1.38

GGGTCCAGCG
switch fluorescence ratio: 1.03

TGACTCTGCG
switch fluorescence ratio: 1.1

TGAAAGACAC
switch fluorescence ratio: 1.11

GCCTATATGG
switch fluorescence ratio: 0.955

ATCTCTGGGA
switch fluorescence ratio: 1.05

TCCGTTAGTG
switch fluorescence ratio: 1.01

GGCTCAAG
switch fluorescence ratio: 1.01

TAATTAAACT
switch fluorescence ratio: 0.975

TGAGCGGGG
switch fluorescence ratio: 0.983

TCACTTATTA
switch fluorescence ratio: 1

AGCTATAGCG
switch fluorescence ratio: 0.962

CAGGTTATAC
switch fluorescence ratio: 1.28

GACGTGAGAG
switch fluorescence ratio: 1.09

GCAAAATTAT
switch fluorescence ratio: 1.01

TTCGGCAT
switch fluorescence ratio: 1.02

TACAACAAGC
switch fluorescence ratio: 1.07

CGATGGAAA
switch fluorescence ratio: 0.967

TGCACAAGGA
switch fluorescence ratio: 1.05

GCTCTACCGT
switch fluorescence ratio: 1.07

TCATCTGTAT
switch fluorescence ratio: 1.04

GGGTCTGCAA
switch fluorescence ratio: 2.41

TGGGCGTAGT
switch fluorescence ratio: 1.01

GAGTCTGACG
switch fluorescence ratio: 1.05

CTATCAGG
switch fluorescence ratio: 0.984

CGTTTCGTCA
switch fluorescence ratio: 1.01

TTGGTGAATC
switch fluorescence ratio: 0.979

TCTTCTCTTT
switch fluorescence ratio: 0.974

GCATGTATTC
switch fluorescence ratio: 1.06

GAAGAGGTGT
switch fluorescence ratio: 1.06

TAAAGTGACG
switch fluorescence ratio: 1.01

GTGATGAGGT
switch fluorescence ratio: 0.979

ATATGTAGTG
switch fluorescence ratio: 1.02

GCTAGCGCTG
switch fluorescence ratio: 1.04

AGGGCTCATT
switch fluorescence ratio: 0.968

GATGCATCCG
switch fluorescence ratio: 1

CACGCGTCGT
switch fluorescence ratio: 0.982

TTCGTCCACG
switch fluorescence ratio: 0.984

TTAAACGCGC
switch fluorescence ratio: 1.06

CACTGTGTTT
switch fluorescence ratio: 1

— the supplement of paper PMC10126150
